# The other results are listed elsewhere or left out.
# B1: PhoQ; a variant is named by its letters at X, in order, P23837 (parent)
# chain: MKKLLRLFFPLSLRVRFLLATAAVVLVLSLAYGMVALIGYSVSFDKTTFRLLRGESNLFYTLAKWENNKLHVELPENIDKQSPTMTLIYDENGQLLWAQRDVPWLMKMIQPDWLKSNGFHEIEADVNDTSLLLSGDHSIQQQLQEVREDDDDAEMTHSVAVNVYPATSRMPKLTIVVVDTIPVELKSSYMVWSWFIYVLSANLLLVIPLLWVAAWWSLRPIEALAKEVRELEEHNRELLNPATTRELTSLVRNLNRLLKSERERYDKYRTTLTDLTHSLKTPLXXLQXXLRSLRSEKMSVSDAEPVMLEQISRISQQIGYYLHRASMRGGTLLSRELHPVAPLLDNLTSALNKVYQRKGVNISLDISPEISFVGEQNDFVEVMGNVLDNACKYCLEFVEISARQTDEHLYIVVEDDGPGIPLSKREVIFDRGQRVDTLRPGQGVGLAVAREITEQYEGKIVAGESMLGGARMEVIFGRQHSAPKDE
# Variants of: B1
# Assay: enrichment ratio after two sorts for PhoP signalling (ratio (wild type AVST 3.29)); higher = more functional
# Conditions: with PhoP (E. coli)
row,Variant,enrichment ratio
1,KLPI,≤ 0.25
2,KILY,≤ 0.25
3,FFFS,≤ 0.25
4,INLD,≤ 0.25
5,VVYQ,≤ 0.25
6,NADN,≤ 0.25
7,VYQM,≤ 0.25
8,DCCT,≤ 0.25
9,WDVS,≤ 0.25
10,YHWL,≤ 0.25
11,YSGQ,≤ 0.25
12,LVNY,≤ 0.25
13,FVPN,≤ 0.25
14,RCRW,≤ 0.25
15,NAIR,≤ 0.25
16,LMPY,≤ 0.25
17,FAEY,≤ 0.25
18,FLEI,≤ 0.25
19,ANAE,≤ 0.25
20,DRGI,≤ 0.25
21,KNMF,≤ 0.25
22,RRTK,≤ 0.25
23,GPHH,≤ 0.25
24,NKSK,≤ 0.25

row,Variant,enrichment ratio
1,NWND,≤ 0.25
2,IVTD,≤ 0.25
3,AMSF,6.43
4,DCDV,≤ 0.25
5,QMYN,≤ 0.25
6,YGKP,≤ 0.25
7,IVRD,≤ 0.25
8,NFLK,≤ 0.25
9,DLCD,≤ 0.25
10,WRVH,≤ 0.25
11,LNNQ,≤ 0.25
12,KCWV,≤ 0.25
13,TARK,≤ 0.25
14,YPSW,≤ 0.25
15,EEPG,≤ 0.25
16,TWII,≤ 0.25
17,VVKW,≤ 0.25
18,PHYL,≤ 0.25
19,GDVH,2.07
20,IPQM,≤ 0.25
21,AIQR,≤ 0.25
22,FHNA,≤ 0.25
23,WNVN,≤ 0.25
24,IPYF,≤ 0.25

row,Variant,enrichment ratio
1,ELGH,≤ 0.25
2,VSRY,≤ 0.25
3,RAGN,≤ 0.25
4,NQRS,≤ 0.25
5,MNVD,≤ 0.25
6,PWAL,≤ 0.25
7,KFYR,≤ 0.25
8,TFIL,≤ 0.25
9,TEPV,≤ 0.25
10,PFLD,≤ 0.25
11,WEPY,≤ 0.25
12,LDGE,≤ 0.25
13,HLWW,≤ 0.25
14,FSGW,≤ 0.25
15,EHPC,≤ 0.25
16,FEPA,≤ 0.25
17,AKVR,≤ 0.25
18,CYVR,≤ 0.25
19,IEMY,≤ 0.25
20,KKPM,≤ 0.25
21,LKIV,≤ 0.25
22,LNIT,≤ 0.25
23,IELF,≤ 0.25
24,HTED,≤ 0.25

row,Variant,enrichment ratio
1,FTCD,≤ 0.25
2,FERR,≤ 0.25
3,RNYM,≤ 0.25
4,PHVF,≤ 0.25
5,ALCT,10.9
6,LMFI,≤ 0.25
7,WFNQ,≤ 0.25
8,LFFE,≤ 0.25
9,TAQP,≤ 0.25
10,DWTQ,≤ 0.25
11,SVCR,7.88
12,EYDR,≤ 0.25
13,FFSN,≤ 0.25
14,TESP,≤ 0.25
15,EIFY,≤ 0.25
16,LAQY,≤ 0.25
17,RFWL,≤ 0.25
18,LKSH,≤ 0.25
19,KCRE,≤ 0.25
20,PKYA,≤ 0.25
21,HPNP,≤ 0.25
22,TLPF,≤ 0.25
23,NCVL,≤ 0.25
24,DSVT,1.06

row,Variant,enrichment ratio
1,ESTR,≤ 0.25
2,PPWA,≤ 0.25
3,NRWV,≤ 0.25
4,WTHP,≤ 0.25
5,VAPG,≤ 0.25
6,ASQW,≤ 0.25
7,LLIP,≤ 0.25
8,ACQP,≤ 0.25
9,TTCM,24.5
10,KAVI,≤ 0.25
11,RNRC,≤ 0.25
12,INMG,≤ 0.25
13,NKDI,≤ 0.25
14,LTIA,≤ 0.25
15,TISC,15
16,PDMS,≤ 0.25
17,DEAG,≤ 0.25
18,CISR,≤ 0.25
19,IMAF,≤ 0.25
20,LVEL,≤ 0.25
21,ELMV,≤ 0.25
22,LFFM,≤ 0.25
23,KTSI,≤ 0.25
24,TFHS,≤ 0.25

row,Variant,enrichment ratio
1,YDVW,≤ 0.25
2,SPPP,≤ 0.25
3,KKYN,≤ 0.25
4,HCKA,≤ 0.25
5,RSDF,≤ 0.25
6,QLTG,≤ 0.25
7,GEPP,≤ 0.25
8,RNIE,≤ 0.25
9,AEDD,≤ 0.25
10,TQPL,≤ 0.25
11,RWLG,≤ 0.25
12,NNKA,≤ 0.25
13,YAFF,≤ 0.25
14,YLRY,≤ 0.25
15,IWTC,≤ 0.25
16,AFMP,≤ 0.25
17,QPAI,≤ 0.25
18,YQEP,≤ 0.25
19,VLEG,≤ 0.25
20,VPMS,≤ 0.25
21,NIGS,≤ 0.25
22,LYRS,≤ 0.25
23,MPAT,≤ 0.25
24,TYPE,≤ 0.25

row,Variant,enrichment ratio
1,ADKG,≤ 0.25
2,LFKV,≤ 0.25
3,YLFW,≤ 0.25
4,IYTW,≤ 0.25
5,AQAG,9.01
6,NLAR,≤ 0.25
7,TNEN,≤ 0.25
8,LHAD,≤ 0.25
9,VPCH,≤ 0.25
10,TWLM,≤ 0.25
11,RQFM,≤ 0.25
12,DHQT,≤ 0.25
13,LVFG,≤ 0.25
14,PLMD,≤ 0.25
15,VWKW,≤ 0.25
16,KNAQ,≤ 0.25
17,MFKD,≤ 0.25
18,EDIM,≤ 0.25
19,HSES,≤ 0.25
20,LVFR,≤ 0.25
21,YGFV,≤ 0.25
22,KSGM,≤ 0.25
23,VSLS,2.58
24,TKYE,≤ 0.25

row,Variant,enrichment ratio
1,TIFC,≤ 0.25
2,VQGS,≤ 0.25
3,LMCK,≤ 0.25
4,TEWA,38.4
5,EEIE,≤ 0.25
6,MMDM,≤ 0.25
7,QMDQ,≤ 0.25
8,QLVP,≤ 0.25
9,IPVS,≤ 0.25
10,SQYT,≤ 0.25
11,AFHT,≤ 0.25
12,NLRA,≤ 0.25
13,TLWD,≤ 0.25
14,GDAM,≤ 0.25
15,MVGV,≤ 0.25
16,RQIC,≤ 0.25
17,HNTP,≤ 0.25
18,RAYM,≤ 0.25
19,KGVH,≤ 0.25
20,MWMF,≤ 0.25
21,FLYA,≤ 0.25
22,GGIM,13.9
23,VIPF,≤ 0.25
24,ADVV,8.21

row,Variant,enrichment ratio
1,IITQ,≤ 0.25
2,HMYC,≤ 0.25
3,NMSP,≤ 0.25
4,AMWM,≤ 0.25
5,GIYY,≤ 0.25
6,SLYC,≤ 0.25
7,FCFI,≤ 0.25
8,FTMY,4.04
9,IEST,≤ 0.25
10,LVLY,≤ 0.25
11,NHGG,≤ 0.25
12,RQWC,≤ 0.25
13,WQQF,≤ 0.25
14,VSNV,≤ 0.25
15,YMIF,≤ 0.25
16,TGKD,≤ 0.25
17,PVVD,≤ 0.25
18,GYYS,≤ 0.25
19,SEMH,19.3
20,AQFP,≤ 0.25
21,WNKN,≤ 0.25
22,LQPV,≤ 0.25
23,NNGM,≤ 0.25
24,LIQR,≤ 0.25

row,Variant,enrichment ratio
1,KVKS,≤ 0.25
2,SANL,≤ 0.25
3,TMFN,≤ 0.25
4,MWGS,≤ 0.25
5,RCMG,≤ 0.25
6,RVGF,≤ 0.25
7,RIIC,≤ 0.25
8,KAVV,≤ 0.25
9,TTQY,2.02
10,ESFR,≤ 0.25
11,HKSL,≤ 0.25
12,PYGK,≤ 0.25
13,KLMT,≤ 0.25
14,SQSF,7.01
15,NKWM,≤ 0.25
16,LMGK,≤ 0.25
17,QQNG,≤ 0.25
18,THAT,≤ 0.25
19,KKGA,≤ 0.25
20,DVTN,≤ 0.25
21,KQQF,≤ 0.25
22,TPTR,≤ 0.25
23,VQSQ,≤ 0.25
24,PKLH,≤ 0.25

row,Variant,enrichment ratio
1,VTHM,≤ 0.25
2,APPS,≤ 0.25
3,LQVH,≤ 0.25
4,PQWR,≤ 0.25
5,KFKS,≤ 0.25
6,NWDF,≤ 0.25
7,SMAK,10.7
8,FLWP,≤ 0.25
9,EHCR,≤ 0.25
10,VKEP,≤ 0.25
11,TVYV,0.466
12,ECQP,≤ 0.25
13,KQLY,≤ 0.25
14,LRVA,≤ 0.25
15,IRWH,≤ 0.25
16,LNLD,≤ 0.25
17,PRGV,≤ 0.25
18,TWAC,≤ 0.25
19,YKYF,≤ 0.25
20,HHLH,≤ 0.25
21,FSVQ,0.364
22,CRVL,≤ 0.25
23,ASPW,≤ 0.25
24,SCAA,5.68

row,Variant,enrichment ratio
1,MKVC,≤ 0.25
2,VHTV,≤ 0.25
3,NIPQ,≤ 0.25
4,HCLN,≤ 0.25
5,WSND,≤ 0.25
6,IYDM,≤ 0.25
7,THDA,≤ 0.25
8,RSQR,≤ 0.25
9,SQDN,≤ 0.25
10,ASRD,≤ 0.25
11,IIAV,≤ 0.25
12,LNHV,≤ 0.25
13,GIRY,≤ 0.25
14,QLGS,≤ 0.25
15,QHAA,≤ 0.25
16,NALF,≤ 0.25
17,PPFF,≤ 0.25
18,SHVR,≤ 0.25
19,WIFP,≤ 0.25
20,ELKF,≤ 0.25
21,MSCD,≤ 0.25
22,HFCD,≤ 0.25
23,VVLI,≤ 0.25
24,IQMH,≤ 0.25

row,Variant,enrichment ratio
1,VRSI,≤ 0.25
2,FDHI,≤ 0.25
3,LDCG,≤ 0.25
4,VPVL,≤ 0.25
5,VTKA,≤ 0.25
6,MGYG,5.96
7,SPGE,≤ 0.25
8,IMPR,≤ 0.25
9,LILV,≤ 0.25
10,LMSA,≤ 0.25
11,KGMW,≤ 0.25
12,HENR,≤ 0.25
13,FWEG,≤ 0.25
14,KHAA,≤ 0.25
15,NNPR,≤ 0.25
16,NWAK,≤ 0.25
17,MKFT,≤ 0.25
18,YLRG,≤ 0.25

# Reference: a collection of fitness landscapes (doi:10.1126/science.1257360)
